According to the supplement of paper PMC9446081:
The whole screen tested about 39,000 compounds, of which about 220 (0.56%) showed activity. Some of the results follow.

Tested on: Escherichia coli K-12 BW25113
Experiment: relative growth (OD600 normalised to plate interquartile mean) (fraction); higher = less growth inhibition, active = 0.2 or less
Conditions: 50 µM; LB; incubation time: overnight (16-24 h)
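Note: static incubation at 37 °C against the wild-type strain, values averaged over two biological replicates.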

Structure (SMILES) | relative growth
COc1ccc(NC(=O)N(C)C[C@@H]2Oc3c(NC(=O)c4cc(C)nn4C)cccc3C(=O)N([C@@H](C)CO)C[C@H]2C)cc1 | inactive: 1
Cc1noc(C)c1NC(=O)Nc1ccc2c(c1)C(=O)N([C@@H](C)CO)C[C@H](C)[C@@H](CN(C)C(=O)Nc1ccc(C(F)(F)F)cc1)OCCCC[C@H](C)O2 | inactive: 1.01
C[C@@]1(C2CC2)NC(=O)NC1=O | inactive: 0.937
COc1ccc([C@@H]([C@H](Cc2ccccc2)OC(C)=O)N2C[C@@H](OC(C)=O)[C@@H]3[C@H]([C@@H]2Cc2ccccc2)N(C)O[C@H]3c2ccccc2)cc1 | inactive: 1.03
Cc1cc(C(=O)c2cc3cc(Cl)ccc3o2)ccc1Cl | inactive: 0.97
C[C@@H]1CN([C@H](C)CO)C(=O)Cc2cc(NC(=O)Nc3ccccc3)ccc2O[C@@H]1CN(C)S(C)(=O)=O | inactive: 0.982
Cc1ccccc1-c1ccc2c(c1)O[C@H](CN(C)C(=O)Nc1ccc(C(F)(F)F)cc1)[C@@H](C)CN([C@H](C)CO)S2(=O)=O | inactive: 0.991
COc1ccc(S(=O)(=O)N(C)C[C@H]2OCCCC[C@@H](C)Oc3ccc(NS(C)(=O)=O)cc3C(=O)N([C@H](C)CO)C[C@H]2C)cc1 | inactive: 0.987
COc1ccc(COC[C@]23N=C4SCc5ccccc5CN4[C@H](c4ccccc4O2)[C@H]3COC(=O)c2ccccc2)cc1 | inactive: 1.01
C[C@@H]1CN([C@@H](C)CO)C(=O)c2cc(NC(=O)Nc3cccc4ccccc34)ccc2O[C@@H]1CN(C)C(=O)NC1CCCCC1 | inactive: 1
C[C@H]1CN([C@@H](C)CO)C(=O)c2cc(NC(=O)CCC(F)(F)F)ccc2O[C@H]1CN(C)S(C)(=O)=O | inactive: 0.989
C[C@H](CO)N1C[C@H](C)[C@H](CN(C)C(=O)Nc2ccc(F)cc2)OCCCC[C@H](C)Oc2ccc(NS(=O)(=O)c3ccc(Cl)cc3)cc2C1=O | inactive: 1.03
CN1C(=O)c2cc(NC(=O)Nc3ccccc3F)ccc2OC[C@H]2O[C@H](CC(=O)NCc3ccc(-c4ccccc4)cc3)CC[C@H]21 | inactive: 1.04
COc1ccc(S(=O)(=O)N(C)C[C@@H]2Oc3ccc(NS(C)(=O)=O)cc3C(=O)N([C@@H](C)CO)C[C@H]2C)cc1 | inactive: 1.01
C[C@@H]1CN([C@@H](C)CO)S(=O)(=O)c2ccc(-c3ccc(F)cc3)cc2O[C@H]1CN(C)C(=O)C1CCOCC1 | inactive: 1
C[C@@H]1CN([C@@H](C)CO)C(=O)c2cc(-c3cccnc3)cnc2O[C@H]1CN(C)C(=O)Nc1ccc2c(c1)OCO2 | inactive: 0.994
O=C(C[C@H]1CC[C@H]2[C@@H](COC[C@@H](O)CN2C(=O)c2ccncc2)O1)NCc1ccc(-c2ccccc2)cc1 | inactive: 1.01
C[C@@H]1CN([C@@H](C)CO)C(=O)c2cccc(NC(=O)c3cnccn3)c2O[C@@H]1CN(C)CC1CCCCC1 | inactive: 0.994
C(=N\c1cc(-c2ccccc2)nn1-c1ccccc1)/c1ccccc1 | inactive: 0.923

Structure (SMILES) | relative growth
Cc1noc(C)c1S(=O)(=O)N(C)C[C@@H]1Oc2ccc(NS(=O)(=O)c3cn(C)cn3)cc2CC(=O)N([C@H](C)CO)C[C@H]1C | inactive: 1.02
COCC#Cc1cnc2c(c1)C(=O)N([C@@H](C)CO)C[C@@H](C)[C@H](CN(C)C(=O)c1ccc3c(c1)OCO3)O2 | inactive: 0.99
Cc1noc(C)c1S(=O)(=O)Nc1cccc2c1O[C@H](CN(C)Cc1ccncc1)[C@H](C)CN([C@H](C)CO)C2=O | inactive: 1.01
O=C(N[C@@H]1CC=CC[C@H](CC(=O)N(CCO)Cc2ccccc2)C(=O)N[C@@H](c2ccccc2)COC1=O)OCC1c2ccccc2-c2ccccc21 | inactive: 0.998
C[C@@H]1CN([C@@H](C)CO)C(=O)c2cc(NC(=O)c3ccncc3)ccc2O[C@H]1CN(C)Cc1ccc(C(=O)O)cc1 | inactive: 0.983
C[C@H](CO)N1C[C@H](C)[C@H](CN(C)S(=O)(=O)c2ccccc2)Oc2ncc(C#Cc3ccccc3F)cc2C1=O | inactive: 1.04
C[C@@H]1CN([C@@H](C)CO)C(=O)c2cc(C3=CCCC3)cnc2O[C@H]1CN(C)S(=O)(=O)c1cn(C)cn1 | inactive: 0.997
Cc1ccc(S(=O)(=O)Nc2ccc3c(c2)C(=O)N([C@@H](C)CO)C[C@H](C)[C@@H](CN(C)S(=O)(=O)c2ccc(Cl)cc2)OCCCC[C@H](C)O3)cc1 | inactive: 1.02
C[C@@H]1CN([C@H](C)CO)S(=O)(=O)c2ccc(C#CC3CC3)cc2O[C@H]1CN(C)Cc1ccccc1F | inactive: 1.06
C[C@@H]1CCCCO[C@@H](CN(C)C(=O)c2ccccc2)[C@@H](C)CN([C@H](C)CO)C(=O)c2cc(NC(=O)Cc3ccccc3)ccc2O1 | inactive: 1.04
CCCCNc1ccc(C(=O)OCCOCCOCCOCCOCCOCCOCCOCCOCCOC)cc1 | inactive: 1.09
C[C@H](C(=O)N(C)C[C@H]1OCc2ccccc2-c2c(n(C)c3ccccc23)C(=O)N([C@@H](C)CO)C[C@@H]1C)c1ccccc1 | inactive: 1.01
Cc1noc(C)c1S(=O)(=O)N(C)C[C@H]1Oc2ccc(NC(=O)Cc3cn(C)c4ccccc34)cc2CC(=O)N([C@H](C)CO)C[C@@H]1C | inactive: 1.01
C[C@@H]1CN([C@@H](C)CO)C(=O)c2cc(NC(=O)Nc3ccc4c(c3)OCO4)ccc2O[C@H]1CN(C)S(C)(=O)=O | inactive: 0.975
COc1ccc(CN(C)C[C@@H]2OCCCC[C@H](C)Oc3ccc(NC(=O)Nc4ccccc4)cc3C(=O)N([C@H](C)CO)C[C@@H]2C)cc1 | inactive: 0.953
N[C@@H](C(=O)O)C1=CCC=CC1 | inactive: 0.972
CC(C)(Oc1ccc(C(=O)c2ccc(Cl)cc2)cc1)C(=O)O | inactive: 0.913
C[C@H]1[C@H](NC(=O)/C(=N\OC(C)(C)C(=O)O)c2csc(N)n2)C(=O)N1S(=O)(=O)O | active: 0.0312
C[C@@H]1CN([C@@H](C)CO)C(=O)c2cccc(NC(=O)c3ccncc3)c2O[C@@H]1CN(C)S(=O)(=O)c1cn(C)cn1 | inactive: 1
